Test results reported in PubChem BioAssay AID1508623 (National Center for Advancing Translational Sciences (NCATS), 2021).
Among all 48,000 compounds or so, about 450 (0.94%) were called active. About 19% were inconclusive and are not listed. The call rests on the fitted dose curve; in most records, active means well fitted inhibition curve with a large enough effect; inconclusive means small, poorly fitted or top-dose-only effect; inactive means no such curve, though single readings can be large or run the other way. The list shows a part of the results.

experiment: Primary qHTS for Identification of Small Molecule Inhibitors of Huntingtin Promoter Activity; conditions: HEK293 HTT promoter firefly luciferase reporter (activity 0% = vehicle and -100% = no light), 24 h; series mostly up to 57.5 µM; activity change, negative = inhibition: at the top concentration; further: nearly all actives have a fitted effect of over 50% in size
In short: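 Luminescence was read after Dual-Glo reagent and a 10 min room-temperature incubation. Values were normalized to vehicle (0% activity) and zero RLU (-100% activity). Reporter HEK293 cells had been exposed to compounds (up to 57.5 uM final) for 24 h.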

Activity change, negative = inhibition, inactive:
Nc1c(C(=O)NCCc2ccccc2)nnn1CC(=O)Nc1ccc(Cl)cc1 -10.8%, O=C(CSc1nc2c([nH]c3ccccc32)c(=O)n1-c1ccccc1)c1ccc(Cl)cc1 -3.63%, CCCn1c(CCC(=O)Nc2cccc(C)c2C)nc2cccnc21 -4.56%, Cc1ccc(Nc2c(-c3ccc(N4CCOCC4)cc3)nc3c(C)cccn23)cc1 -5.38%, COCCn1c(SCC(=O)Nc2cccc(C)c2C)nc2c(oc3ccccc32)c1=O -9.86%, COc1ccc(CCNC(=O)c2cc3c(-c4ccc(OC)c(OC)c4)nn(C)c3s2)cc1OC -18.8%, Cc1oc2ncn(C)c(=O)c2c1C(=O)N(Cc1ccccc1)C(C)C -3.78%, CCOC(=O)c1c(C)[nH]c(CCC(=O)NCc2cccc(OC)c2)c1C -11.9%, Cc1ccc(Cl)cc1N1CCN(C(=O)CCn2c(=O)c3cccn3c3cccnc32)CC1 -0.736%, CCc1ccccc1NC(=O)CSc1nc2ncccc2o1 -17.1%, COc1ccc(C(CNC(=O)Cc2ccc(Cl)cc2)N2CCOCC2)cc1 (configuration not stated) -3.07%, O=C(CC(c1cccs1)N1Cc2ccccc2C1=O)Nc1ccc(F)cc1F (configuration not stated) -16%, Cc1cccc(CC(=O)NC2CC(=O)N(c3ccccc3)C2)c1 (configuration not stated) -14.4%, Cc1ccc(O)c(NC(=O)c2cc(-c3ccc(F)cc3)on2)c1 74.9%, Cc1cc2c(cc3c(SCc4cccc(F)c4)nnc(C)n32)o1 12%, Cc1cccc(C(=O)N2CCC(N3CCN(Cc4ccc(F)cc4)C(=O)C3=O)CC2)c1 -0.108% [at 11.5 µM], COC(=O)c1ccc(Cl)cc1NC(=O)NC(C)c1c(-n2cccc2)sc(C)c1C (configuration not stated) -27.5%, O=c1c2c3c(sc2n(Cc2ccccc2F)c(=O)n1-c1ccc(Cl)cc1)CCCC3 -4.81%, Cc1c(C)c2c(cc(C)c3c(-c4ccc(Br)cc4)coc32)oc1=O -3.38%, CCOC(=O)c1cccc(NC(=O)CCn2c(=O)oc3ccccc32)c1 -14.1%, CCC(Oc1ccccc1)C(=O)Nc1cccc(OCc2cc(=O)n3cccc(C)c3n2)c1 (configuration not stated) -5.62%, Cc1ccc(CSc2nnc([C@@H](N)C(C)C)o2)cc1 -11.2%, CC(=O)c1ccc(NC(=O)Cn2c(=O)cc(C)c3c(C)nn(-c4cccc(F)c4)c32)cc1 -7.07%, CCOC(=O)c1c(C)[nH]c(C)c1S(=O)(=O)NCC(=O)Nc1cccc(SC)c1 -16.7%, COc1cccc(NC(=O)CSc2nc(C)c(Cc3ccccc3)c(=O)[nH]2)c1 -16.6%, CCN(CC)c1ccc(C(=O)NCc2nc3cccnc3n2Cc2ccc(C)cc2)cc1 -2.15%, Cc1ccc(C2N=C(N)Nc3nc4ccccc4n32)cc1 (configuration not stated) -12.5%, Cc1cccc(-c2nc3c4c(-c5ccccc5)c(-c5ccccc5)oc4ncn3n2)c1 1.77%, Cc1cccc(NC(=O)Cn2cc(S(=O)(=O)N3CCCC3)c(S(=O)(=O)N3CCCC3)c2)c1C 3.34% [at 11.5 µM], CSCCC(NS(=O)(=O)c1ccc2c(c1)oc(=O)n2C)C(=O)Nc1ccc(F)c(Cl)c1 (configuration not stated) -17.2%, Cc1cccc(NC(=O)c2cnc3sc(N4CCCC4)nn3c2=O)c1C -0.532%, COc1ccc(NC(=O)c2c(NCc3cccc(F)c3)sc3c2CCC3)c(OC)c1 -20.3%, COc1cccc2sc(N(Cc3cccnc3)C(=O)c3ccco3)nc12 -17.5%, Cc1nn(C)c(C)c1S(=O)(=O)N(CC(=O)NCCc1ccc(Cl)cc1)c1ccc(C(C)C)cc1 -5.35%, COc1cc2c(cc1OC)C(=O)CC2 29.1%, COc1ccc(C)cc1NC(=O)C(=O)NCCc1sc(-c2cccc(C)c2)nc1C 4.5%, Cc1cc(C)cc(NC(=O)Cc2csc(COc3cccc(C)c3)n2)c1 -16.6%, CCCNC(=O)C1CCC(Cn2c(=O)c3sccc3n(CC(=O)NCc3ccccc3)c2=O)CC1 (configuration not stated) -7.55%, CCOc1ccc(S(=O)(=O)N(CC(=O)Nc2ccc(OC)cc2OC)c2ccccc2)cc1 -0.135%, Cc1nn(CCCC(=O)NCc2ccccc2Br)c(=O)c2c1sc1ccccc12 -0.13%, O=C(CN1C=NS(=O)(=O)c2ccccc21)Nc1ccccc1F -7.28%, O=C(NCc1ccccc1F)C1CCCN(C(=O)N2CCOc3ccccc32)C1 (configuration not stated) -26.8%, COc1ccc(OC)c(CNS(=O)(=O)c2ccc3c(c2)oc(=O)n3C)c1 -18.3%, Cc1cccc2nc(Cn3c(=O)n(-c4ccc(Cl)cc4)c(=O)c4c5c(sc43)CCC5)cc(=O)n12 -6.16%, O=C1CCc2ccccc2O1, COc1ccc(S(=O)(=O)N(CC(=O)N2CCc3ccccc3C2)c2ccc(C)cc2)cc1 -10.5%, CCn1cc(C(=O)NCCc2ccccc2)c(=O)c2cc(S(=O)(=O)N3CCCCCC3)ccc21 -17.5%, Cc1nn(C(C)C(=O)N2CCN(c3ccc(F)cc3)CC2)c(=O)c2c1sc1ccccc12 (configuration not stated) -5.88%, CC1=C(C/C=C(\C)CCC[C@H](C)CCC[C@H](C)CCCC(C)C)C(=O)c2ccccc2C1=O 13.9%, Cc1cccc(C)c1NC(=O)C1CCCN1S(=O)(=O)c1ccccc1 (configuration not stated) 0.102%, O=C(OCCOCCO)c1ccccc1Nc1cccc(C(F)(F)F)c1 -27.3%, CCc1ccc2ncc3c(-c4ccc(F)cc4)nn(CC(=O)NC4CCCCC4)c3c2c1 -6.93%, CCOC(=O)Cn1c(=O)n(-c2cccc(Cl)c2)c2nc(-c3ccccc3Cl)nc(C(N)=O)c21 -23.1%, CN(C)c1ccc(CNC(=O)Cc2ccc(NC(=O)N3CCCCc4ccccc43)cc2)cc1 -5.84%, Cc1ccccc1OC(=O)c1nc(SCc2ccccc2F)ncc1Cl -8.95%, Cc1c(C)n(Cc2ccccc2)c2ccc(C(=O)NCC(C)c3ccccc3)cc12 (configuration not stated) -4.55%, Cc1ccc(N2CCN(S(=O)(=O)c3nnc(NC(=O)c4ccccc4)s3)CC2)cc1 -5.34%, COc1ccc(N2CCN(C(=O)c3cc4c(=O)oc5ccc(C)cc5c4s3)CC2)cc1 -8.55%, CCOC(=O)CNC(=O)c1cc2c(=O)oc3ccccc3c2s1 0.262%, CCOc1ccc(N2CC(NC(=O)c3ccc4c(c3)OCO4)CC2=O)cc1 (configuration not stated) 1.06%, CCCCNc1nc2c(S(=O)(=O)c3ccc(C)cc3)nnn2c2ccsc12 -6.77%, Cc1ccc(C)c(N2CCN(c3nc4ccc(C)cc4nc3-n3nc(C)cc3C)CC2)c1 -1.35%, O=C(Nc1ccccc1C(=O)OCc1cc(=O)n2nc(C3CC3)sc2n1)c1ccc(Cl)cc1 5.32%, O=C(Cn1cnc2nc3c(cc2c1=O)CCCC3)Nc1ccc(F)cc1Cl -23%, CCOCCc1nnc(NC(=O)C(=O)c2cc(C)n(-c3ccc(C)c(C)c3)c2C)s1 -14.7%, Cc1cc(C)n(CCC(=O)Nc2ccc(Cl)cc2)n1 3.96%, COc1ccccc1CNC(=O)CSc1nc(-c2ccc(OC)c(OC)c2)cc(C(F)(F)F)n1 -0.121%, CCOc1ccc(CCNC(=O)c2ccc3c(c2)N(Cc2ccc(F)cc2)CCS3)cc1 -33.6%, COC(=O)c1sccc1S(=O)(=O)N(CC(=O)Nc1cc(C)ccc1C)c1ccc(C)c(C)c1 -24.1%, Cc1ccc(N2CC(NC(=O)c3ccc(S(=O)(=O)N(C)C)cc3)CC2=O)cc1C (configuration not stated) -28.6%, CCC(C)NC(=O)c1ccc2c(c1)sc1nc(-c3ccc(OC)cc3)cn12 (configuration not stated) 5.01%, O=C(CSc1nc2c([nH]c3ccccc32)c(=O)n1-c1cccc(Cl)c1)N1CCCC1 -15.4%, CCc1ccc2oc(-c3ccc(C)c(NC(=O)c4cc([N+](=O)[O-])ccc4N4CCOCC4)c3)nc2c1 -9.57%, CCCCc1ccc(-n2nc3ccc(NC(=O)c4cc5ccccc5o4)cc3n2)cc1 44.1%, COc1ccc(C(=O)NCCSc2c[nH]c3ccccc23)cc1OC -21.2%, Clc1ccc(CSc2ccc(-c3cccs3)nn2)cc1 22.8%, CSc1ncc(C(=O)Nc2cc(C)cc(C)c2)c(-c2ccccc2)n1 -10.4%, COc1ccc(-n2c(=O)c3c4c(sc3n(Cc3ccc(F)cc3)c2=O)CN(C(C)=O)CC4)c(OC)c1 -14.5%, CC(=O)N1CCc2c(sc3c2c(=O)n(Cc2ccccc2)c(=O)n3Cc2ccc(Cl)cc2)C1 4.07%, Cc1cc(C)c(Cn2c(=O)n(CCC(=O)NCCc3ccccc3)c(=O)c3ccccc32)c(C)c1 -5.58%, CN1CCN(C(CNC(=O)c2ccc(F)cc2)c2ccc3c(c2)OCO3)CC1 (configuration not stated) -2.19%, COc1ccc(OC)c(CCNC(=O)c2c(C)oc3ncn(CC(C)C)c(=O)c23)c1 -18%, CCOCCCn1c(SCC(=O)Nc2ccccc2CC)nc2ccccc2c1=O -21.4%, CCOC(=O)Cn1c(=O)oc2cc(S(=O)(=O)N3CCN(c4cccc(Cl)c4)CC3)ccc21 -13.6%, O=C(O)c1sc(Nc2ccccc2)nc1-c1ccccc1 -6.08%, Nc1ccc(C(=O)N2CC3CC(CN(Cc4ccccc4)C3)C2)cc1 0.139%, Cc1ccc(NC(=O)c2cccc3c(=O)c4c([nH]c23)CCCC4)c(C)c1 -24.8%, CCN(CC)c1ccc(C(=O)N2CCc3c([nH]c4ccccc34)C2c2ccc(F)cc2)cc1 (configuration not stated) -11.6%, CCOC(=O)c1sc2ccccc2c1S(=O)(=O)Nc1ccc(OC)c(Cl)c1 0%, Cc1ccc(NC(=O)Nc2nnc(SCC(=O)N(C(C)C)C(C)C)s2)cc1 -33.6%, CCCn1c(=N)c(C(=O)NCC2CCCO2)cc2c(=O)n3cc(C)ccc3nc21 (configuration not stated) -1.44%, Cc1cccc(-c2nc(SCc3cc(=O)c4c(C)cc(C)cc4[nH]3)n[nH]2)c1 -24.7%, COCCN(CCOC)S(=O)(=O)c1ccc(C(=O)Nc2sc3c(c2C(N)=O)CCCC3)cc1 -20.4%, O=C(Cn1ncc2c3ccccc3n(Cc3ccccc3)c2c1=O)NCCc1ccc(Cl)cc1 -0.957%, COc1cccc(NC(=O)Cn2nc(N3CCN(c4ccccc4)CC3)ccc2=O)c1 1.59%, Cc1ccc(Cl)cc1-n1ncc2c(NCCc3ccccc3)ncnc21 -14.2%, O=C(Cn1nc2c(cc1=O)CCCC2)NCc1ccc(Cl)cc1 -24%
